Enrichment ratio data for 153 variants are collected here from a collection of fitness landscapes (doi:10.1126/science.1257360).

Some of the results follow. Some results are limits rather than exact numbers.

B1: PhoQ; a variant is named by its letters at X, in order, P23837 (parent)
chain: MKKLLRLFFPLSLRVRFLLATAAVVLVLSLAYGMVALIGYSVSFDKTTFRLLRGESNLFYTLAKWENNKLHVELPENIDKQSPTMTLIYDENGQLLWAQRDVPWLMKMIQPDWLKSNGFHEIEADVNDTSLLLSGDHSIQQQLQEVREDDDDAEMTHSVAVNVYPATSRMPKLTIVVVDTIPVELKSSYMVWSWFIYVLSANLLLVIPLLWVAAWWSLRPIEALAKEVRELEEHNRELLNPATTRELTSLVRNLNRLLKSERERYDKYRTTLTDLTHSLKTPLXXLQXXLRSLRSEKMSVSDAEPVMLEQISRISQQIGYYLHRASMRGGTLLSRELHPVAPLLDNLTSALNKVYQRKGVNISLDISPEISFVGEQNDFVEVMGNVLDNACKYCLEFVEISARQTDEHLYIVVEDDGPGIPLSKREVIFDRGQRVDTLRPGQGVGLAVAREITEQYEGKIVAGESMLGGARMEVIFGRQHSAPKDE

The variants in the experiment derive from B1. Description: enrichment ratio after two sorts for PhoP signalling (ratio (wild type AVST 3.29)); higher = more functional. To be noted: with PhoP (E. coli).
As for LRWC, the enrichment ratio was at most 0.25.

TCNY: the enrichment ratio is 9.63.

In the case of DNAA, the enrichment ratio was at most 0.25.

As for DYHR, the enrichment ratio is at most 0.25.

As for IAIA, the enrichment ratio is at most 0.25.

Turning to IMYD, the enrichment ratio is at most 0.25.

Turning to FNFM, the enrichment ratio is at most 0.25.

On to KHIW, for which the enrichment ratio is at most 0.25.

As to QCYY, the enrichment ratio is at most 0.25.

ATNT: the enrichment ratio is at most 0.25.

With DKFH, the enrichment ratio was at most 0.25.

FIWK: the enrichment ratio was at most 0.25.

For the variant GNMS, the enrichment ratio amounted to 9.1.

Regarding VFVE, the enrichment ratio was at most 0.25.

As for KTSY, the enrichment ratio was at most 0.25.

With KHWL, the enrichment ratio is at most 0.25.

With MVWV, the enrichment ratio is at most 0.25.

Regarding FTLE, the enrichment ratio was found to be 5.91.

On to SSCK, for which the enrichment ratio was 4.35.

Regarding MCMC, the enrichment ratio is at most 0.25.

As to RANK, the enrichment ratio is at most 0.25.

On to FCIT, for which the enrichment ratio is at most 0.25.

As to AGPG, the enrichment ratio was at most 0.25.

For the variant KMIV, the enrichment ratio is at most 0.25.

For the variant YEWM, the enrichment ratio is at most 0.25.

Take QVRQ: the enrichment ratio is at most 0.25.

With TTPS, the enrichment ratio was at most 0.25.

For HQSC, the enrichment ratio is at most 0.25.

For the variant FQDW, the enrichment ratio was at most 0.25.

MYLR: the enrichment ratio was at most 0.25.

Consider MLCV, for which the enrichment ratio is at most 0.25.

As to RPWG, the enrichment ratio is at most 0.25.

As for AYQD, the enrichment ratio was at most 0.25.

For the variant YAMW, the enrichment ratio is at most 0.25.

On to TSSM, for which the enrichment ratio stood at 24.4.

In the case of RPDD, the enrichment ratio is at most 0.25.

Take SVVR: the enrichment ratio worked out at 2.5.

On to WMAW, for which the enrichment ratio was at most 0.25.

With GDNG, the enrichment ratio was at most 0.25.

Take TRNF: the enrichment ratio is at most 0.25.

Regarding AKNC, the enrichment ratio was at most 0.25.

In the case of GWNG, the enrichment ratio is at most 0.25.

On to RFLK, for which the enrichment ratio is at most 0.25.

Regarding PVMF, the enrichment ratio is at most 0.25.

Regarding WSLR, the enrichment ratio was at most 0.25.

With PRAE, the enrichment ratio is at most 0.25.

Turning to ANSS, the enrichment ratio worked out at 12.7.

In the case of NDCS, the enrichment ratio was at most 0.25.

Turning to NKAG, the enrichment ratio is at most 0.25.

Turning to DLNP, the enrichment ratio was at most 0.25.

With QPFY, the enrichment ratio was at most 0.25.

In the case of EAVE, the enrichment ratio is at most 0.25.

As for RFFI, the enrichment ratio was at most 0.25.

TSCC: the enrichment ratio worked out at 17.3.

WVAW: the enrichment ratio is at most 0.25.

Take LNEE: the enrichment ratio is at most 0.25.

SLEW: the enrichment ratio is at most 0.25.

As to KFRH, the enrichment ratio is at most 0.25.

As for WECW, the enrichment ratio is at most 0.25.

As for SPDF, the enrichment ratio was at most 0.25.

For WSKT, the enrichment ratio was at most 0.25.

WKMN: the enrichment ratio is at most 0.25.

With TCIA, the enrichment ratio was at most 0.25.

Take VAHI: the enrichment ratio was at most 0.25.

Turning to ILWM, the enrichment ratio was at most 0.25.

For FTEN, the enrichment ratio is at most 0.25.

YYDL: the enrichment ratio is at most 0.25.

Consider LQYA, for which the enrichment ratio was at most 0.25.

In the case of YSHR, the enrichment ratio was found to be 1.38.

On to YIRS, for which the enrichment ratio was at most 0.25.

For the variant TVYS, the enrichment ratio is at most 0.25.

With EYTR, the enrichment ratio is at most 0.25.

Regarding PTYD, the enrichment ratio is at most 0.25.

Consider DVTP, for which the enrichment ratio is at most 0.25.

FVKY: the enrichment ratio is at most 0.25.

Turning to YQDC, the enrichment ratio was at most 0.25.

For FVIM, the enrichment ratio is at most 0.25.

On to YLQG, for which the enrichment ratio is at most 0.25.

Take MSIQ: the enrichment ratio was at most 0.25.

Consider ICNV, for which the enrichment ratio is at most 0.25.

Regarding YLVC, the enrichment ratio worked out at 0.277.

As to SWTG, the enrichment ratio was at most 0.25.

For MDKM, the enrichment ratio was at most 0.25.

For TAIM, the enrichment ratio was at most 0.25.

Consider IQCH, for which the enrichment ratio is at most 0.25.

On to FFNV, for which the enrichment ratio was 1.49.

Turning to GFIW, the enrichment ratio is at most 0.25.

As to RPYE, the enrichment ratio is at most 0.25.

For the variant VLRD, the enrichment ratio was at most 0.25.

In the case of HQMI, the enrichment ratio is at most 0.25.

Take VMCF: the enrichment ratio is at most 0.25.

Turning to TLFD, the enrichment ratio is at most 0.25.

GKHL: the enrichment ratio was at most 0.25.

For the variant KVFS, the enrichment ratio is at most 0.25.

Regarding NDVG, the enrichment ratio was at most 0.25.

Regarding EEVS, the enrichment ratio was at most 0.25.

For GEVL, the enrichment ratio was found to be 5.34.

Consider IGRI, for which the enrichment ratio was at most 0.25.

Regarding ILMM, the enrichment ratio was at most 0.25.

Turning to NNSE, the enrichment ratio was at most 0.25.

Consider MFLS, for which the enrichment ratio is at most 0.25.

As to MHGC, the enrichment ratio is at most 0.25.

Turning to MCVK, the enrichment ratio is at most 0.25.

Take MSRS: the enrichment ratio is at most 0.25.

WHYP: the enrichment ratio is at most 0.25.

For the variant IFTT, the enrichment ratio is at most 0.25.

With ERCM, the enrichment ratio is at most 0.25.

For the variant DIVN, the enrichment ratio is at most 0.25.

Turning to SVFR, the enrichment ratio was determined as 0.428.

Take KLFW: the enrichment ratio is at most 0.25.

In the case of RIFQ, the enrichment ratio is at most 0.25.

Turning to LWPK, the enrichment ratio was at most 0.25.

Turning to LWQD, the enrichment ratio is at most 0.25.

For the variant LSNH, the enrichment ratio was at most 0.25.

Turning to WEVM, the enrichment ratio is at most 0.25.

Take MDPC: the enrichment ratio stood at 2.79.

Consider QIKP, for which the enrichment ratio was at most 0.25.

In the case of SAFE, the enrichment ratio is at most 0.25.

In the case of HAER, the enrichment ratio was at most 0.25.

For the variant TNEK, the enrichment ratio is at most 0.25.

EDLA: the enrichment ratio is at most 0.25.

Turning to VYTC, the enrichment ratio was at most 0.25.

Take QSQM: the enrichment ratio was at most 0.25.

Turning to FECP, the enrichment ratio was at most 0.25.

Take PIQM: the enrichment ratio was at most 0.25.

Consider LVMW, for which the enrichment ratio was at most 0.25.

Take EEIP: the enrichment ratio is at most 0.25.

In the case of LHMF, the enrichment ratio is at most 0.25.

Consider MYSV, for which the enrichment ratio was 0.337.

For LMQS, the enrichment ratio is at most 0.25.

In the case of LKDA, the enrichment ratio is at most 0.25.

For LQGL, the enrichment ratio is at most 0.25.

Take VEKL: the enrichment ratio is at most 0.25.

As to PGIF, the enrichment ratio was at most 0.25.

For the variant WVTF, the enrichment ratio is at most 0.25.

For RLLN, the enrichment ratio is at most 0.25.

On to VSPC, for which the enrichment ratio was at most 0.25.

Regarding IQSR, the enrichment ratio was at most 0.25.

As to KCYQ, the enrichment ratio was at most 0.25.

For the variant IATM, the enrichment ratio is at most 0.25.

For YVPH, the enrichment ratio is at most 0.25.

Take LQNM: the enrichment ratio was at most 0.25.

For the variant IDEG, the enrichment ratio is at most 0.25.

In the case of DNGR, the enrichment ratio is at most 0.25.

As for LYYY, the enrichment ratio is at most 0.25.

Take VESP: the enrichment ratio was at most 0.25.

Turning to SVHA, the enrichment ratio is at most 0.25.

On to MFWL, for which the enrichment ratio was at most 0.25.

As for WADH, the enrichment ratio was at most 0.25.

On to WACW, for which the enrichment ratio was at most 0.25.

GSFL: the enrichment ratio was at most 0.25.

Regarding RNVT, the enrichment ratio was at most 0.25.

For the variant EQNQ, the enrichment ratio was at most 0.25.
